# Assay results reported in article PMC6212790.
# Some of the results follow. At the low end of the ranking the order means little.
# Biological target: T1, GST-Rok-C97-191 (UniProt O34857)
# T1 sequence: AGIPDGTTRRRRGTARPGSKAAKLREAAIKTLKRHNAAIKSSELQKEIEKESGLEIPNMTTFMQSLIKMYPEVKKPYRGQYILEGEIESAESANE
# Experiment: protein binding microarray;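 also: rank score from −0.5 (least bound) to 0.5 (best bound)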
# Conditions: Rok is a gene silencer of Bacillus subtilis; high values mean tight binding; most listed sequences are background and not binding sites; double strand, one strand shown
row,Sequence,binding signal [E-score]
1,AGCCACCT,-0.127
2,CCACCCCC,-0.242
3,GGTTCAAA,-0.0372
4,ATCACCAA,-0.028
5,GATTTAAA,0.0253
6,CAAATGTG,-0.0251
7,GTACCCTA,-0.0812
8,GACTCTAA,0.0824
9,CGGACACC,-0.255
10,AAAACCGG,-0.0633
11,ATTATACG,0.388
12,AGGCAACC,-0.0941
13,CTTCAGTC,0.00258
14,CGAACTAG,0.299
15,CGCACGAG,-0.396
16,GCTCGACA,-0.145
17,ACCTCCCG,-0.064
18,GCTCGGAA,-0.258
19,CTTCCCAC,-0.058
20,GAGGGACC,-0.173
21,CTTCCTTA,-0.0924
22,CGCGTGTA,0.0288
23,ATTTGCTG,-0.0116
24,CCCAATTC,-0.0119
25,ATGCCTAA,-0.0672

row,Sequence,binding signal [E-score]
1,ACACGGTG,-0.194
2,CTGTAGTA,0.279
3,ACGAGAAC,-0.128
4,AAGTAGAG,0.0923
5,GTTATCCA,0.165
6,CACCTGAA,-0.203
7,TATCGTGA,0.211
8,AACACCTT,-0.132
9,ATGATAGA,0.36
10,CGAGAATA,0.142
11,ACCTTCTA,0.212
12,TCAGGCGA,-0.0467
13,TATTTGAA,-0.00477
14,ACCCTGTG,-0.188
15,ACCGCTGA,-0.178
16,AACCAAGA,0.0903
17,ATACTGCG,0.0317
18,CGGACCAG,-0.182
19,ACACATCA,-0.1
20,CTTCGTAC,0.112
21,CGCGAGTC,0.000606
22,CCACACAA,0.034
23,CCCGACTC,-0.286
24,CGTGCTGC,-0.0586
25,ATCAGAGC,-0.198

row,Sequence,binding signal [E-score]
1,CGGACTAA,0.124
2,CATAGGGG,-0.167
3,GGTGCGCA,-0.104
4,AAGGGAAG,-0.114
5,ACACCCAA,-0.101
6,ACAACGCG,0.0131
7,AAATTTGT,0.33
8,CAACATCC,0.0587
9,GGCCCCTA,-0.312
10,GTGGTAAA,0.21
11,CCACCGTA,-0.0888
12,AAAGCAGA,0.105
13,AACCAAAG,-0.0949
14,AAAAAGGG,-0.153
15,CTAACTCA,0.161
16,TATTAACA,0.262
17,AAGGGTTC,-0.214
18,GTCAGCCA,-0.122
19,AGATATCC,0.00982
20,GCGCAAAA,-0.0364
21,AGGCTTGA,-0.168
22,TACCATCA,0.0543
23,ATATGGGA,0.146
24,CAGCGAGC,-0.103
25,CGCATATC,0.198

row,Sequence,binding signal [E-score]
1,CCAAATTC,-0.0104
2,GACGATCA,-0.281
3,AGGGGTCA,-0.143
4,ACGTTCTC,-0.00213
5,TATAATCA,0.232
6,CGCTAAAC,0.142
7,AGCCCAAA,-0.103
8,GTAAGCCA,-0.0686
9,AAATGACA,0.0262
10,CCAGTTCC,-0.227
11,GTGATCCA,0.0337
12,ATTGTTGG,0.00149
13,CCAACTAG,0.147
14,CGTCGGAA,-0.0465
15,ACGTAAGT,-0.0408
16,CAATAAGG,0.0957
17,TCGCCCAA,-0.12
18,CGTGCAAG,-0.0991
19,TTATTCAA,-0.151
20,AATGTATA,0.35
21,GAAGGTCA,-0.000904
22,AGCATACC,0.0391
23,CCTGCTAG,-0.24
24,AGCTGCCG,-0.25
25,ATCCTACG,0.00735

row,Sequence,binding signal [E-score]
1,CATGCGCA,-0.165
2,ATTCATGG,0.00457
3,ACAGCGGT,-0.273
4,ACCCTCAT,-0.00647
5,AAGGTCAG,-0.0443
6,GCGCTTAC,0.0403
7,AACCTGTG,-0.0172
8,CCGAGTCA,-0.186
9,GAAACGCA,-0.276
10,AGTGAGTA,0.119
11,CTAGACCA,-0.196
12,CAAGATAA,0.084
13,ACATCAAG,-0.0361
14,ACCGCAAA,-0.0242
15,AAAACCGC,-0.26
16,AATTCGTC,0.0658
17,GGATCGTA,0.0309
18,GGGTGACA,-0.0751
19,AAAGGTGC,-0.0147
20,GCAACAAA,0.132
21,CTTTTCAA,0.048
22,TAGACACA,-0.0912
23,CTTCAAAG,-0.117
24,ATATAAAA,0.338
25,ATACAAGC,0.133

row,Sequence,binding signal [E-score]
1,AGTAAGGG,-0.154
2,CAGTCACA,-0.157
3,CCAACGTA,0.161
4,AACGAATG,0.0308
5,CAACTGGG,-0.245
6,CCTATCCG,-0.175
7,GTAAATGA,0.0342
8,CCATGCGA,-0.237
9,AATGCGCG,-0.0163
10,CGCACCAC,-0.22
11,ACCTTTGG,-0.152
12,CCAACGAG,-0.182
13,GCGCCATA,-0.125
14,ACAGAGAG,-0.125
15,CTCACAGA,-0.0733
16,ACTGGAGA,-0.171
17,GCAGATGA,-0.12
18,CTTAAGCC,-0.261
19,AAGGTCTG,-0.194
20,CCTGAAGA,-0.0241
21,GCCTCAGC,-0.245
22,GCATGTCA,-0.16
23,CAGCAATC,-0.0945
24,CGGTGGAC,-0.316
25,CTCCGTTC,-0.0125

row,Sequence,binding signal [E-score]
1,GCCTGCCC,-0.294
2,CGTACGTA,0.05
3,ACACCCGC,-0.182
4,CGACAGAC,-0.0745
5,TGGCACCA,0.0295
6,CCCCGGCC,-0.298
7,CAATAAAG,-0.113
8,AGGATTAG,0.114
9,ATACGGTG,0.081
10,AAGGGCCC,-0.234
11,CAATCGCG,-0.0322
12,ACAGATTC,0.125
13,CAACGTTG,0.059
14,ACAGTTCC,0.0309
15,TCCCGTAA,0.148
16,ATATTGCC,0.109
17,AAAGTTAA,-0.0842
18,CGATTCAC,-0.0667
19,GGAGCGAC,-0.18
20,CTCACACC,0.0115
21,CTTAATTA,0.276
22,ACCACCGG,-0.0384
